# Results published in patent US7342041B2, “3,4-(cyclopentyl)-fused proline compounds as inhibitors of hepatitis C virus NS3 serine protease” (Schering Corporation, priority 2004, dated 2008).
# Molecular target: Recombinant heterodimeric HCV NS3/NS4A protease (strain 1a) (Hepatitis C virus genotype 1a, UniProt P27958)
# Assay: biochemical
# Details: not given
# Text: Assay for HCV Protease Inhibitory Activity:
# Spectrophotometric Assay: Spectrophotometric assay for the HCV serine protease can be performed on the inventive compounds by following the procedure described by R. Zhang et al, Analytical Biochemistry, 270 (1999) 268-275, the disclosure of which is incorporated herein by reference. The assay based on the proteolysis of chromogenic ester substrates is suitable for the continuous monitoring of HCV NS3 protease activity. The substrates are derived from the P side of the NS5A-NS5B junction sequence (Ac-DTEDWX(Nva), where X=A or P) whose C-terminal carboxyl groups are esterified with one of four different chromophoric alcohols (3- or 4-nitrophenol, 7-hydroxy-4-methyl-coumarin, or 4-phenylazophenol). […] Materials and Methods:
# Materials: Chemical reagents for assay related buffers are obtained from Sigma Chemical Company (St. Louis, Mo.). Reagents for peptide synthesis were from Aldrich Chemicals, Novabiochem (San Diego, Calif.), Applied Biosystems (Foster City, Calif.) and Perseptive Biosystems (Framingham, Mass.). Peptides are synthesized manually or on an automated ABI model 431A synthesizer (from Applied Biosystems). UV/VIS Spectrometer model LAMBDA 12 was from Perkin Elmer (Norwalk, Conn.) and 96-well UV plates were obtained from Corning (Corning, N.Y.). The prewarming block can be from USA Scientific (Ocala, Fla.) and the 96-well plate vortexer is from Labline Instruments (Melrose Park, Ill.). A Spectramax Plus microtiter plate reader with monochrometer is obtained from Molecular Devices (Sunnyvale, Calif.).
# Protein concentrations are determined by the Biorad dye method using recombinant HCV protease standards previously quantified by amino acid analysis. Prior to assay initiation, the enzyme storage buffer (50 mM sodium phosphate pH 8.0, 300 mM NaCl, 10% glycerol, 0.05% lauryl maltoside and 10 mM DTT) is exchanged for the assay buffer (25 mM MOPS pH 6.5, 300 mM NaCl, 10% glycerol, 0.05% lauryl maltoside, 5 μM EDTA and 5 μM DTT) utilizing a Biorad Bio-Spin P-6 prepacked column. Substrate Synthesis and Purification: The synthesis of the substrates is done as reported by R. Zhang et al, (ibid.) and is initiated by anchoring Fmoc-Nva-OH to 2-chlorotrityl chloride resin using a standard protocol (K. Barlos et al, Int. J. Pept. Protein Res., 37 (1991), 513-520). The peptides are subsequently assembled, using Fmoc chemistry, either manually or on an automatic ABI model 431 peptide synthesizer. […] The combined filtrate and DCM wash is evaporated azeotropically (or repeatedly extracted by aqueous Na2CO3 solution) to remove the acid used in cleavage. The DCM phase is dried over Na2SO4 and evaporated.
# The ester substrates are assembled using standard acid-alcohol coupling procedures (K. Holmber et al, Acta Chem. Scand., B33 (1979) 410-412). Peptide fragments are dissolved in anhydrous pyridine (30-60 mg/ml) to which 10 molar equivalents of chromophore and a catalytic amount (0.1 eq.) of para-toluenesulfonic acid (pTSA) were added. Dicyclohexylcarbodiimide (DCC, 3 eq.) is added to initiate the coupling reactions. […] Pyridine solvent is evaporated under vacuum and further removed by azeotropic evaporation with toluene.
row,Compound,Ki [nM]
1,C#CCCC(NC(=O)[C@@H]1[C@H]2CCC[C@H]2CN1C(=O)[C@@H](NC(=O)[C@@H](NC(=O)c1cnccn1)C1CCCCC1)C(C)(C)C)C(=O)C(=O)NCC=C (stereo partly drawn) [Entry 8],< 75

# Same assay, conditions: HCV NS3/NS4A protease, strain 1a; 30° C., pH 6.5 assay buffer; read-out: Ki*
row,Ki [nM],Compound
1,13,CC(C)(C)[C@H](NC(=O)N[C@H](CN1C(=O)c2ccccc2C1=O)C(C)(C)C)C(=O)N1C[C@@H]2CCC[C@@H]2[C@H]1C(=O)NC(CC1CCC1)C(=O)C(N)=O (stereo partly drawn) [Entry 1]
2,40,CC(C)[C@H](NC(=O)N[C@H](C(=O)N1C[C@@H]2CCC[C@@H]2[C@H]1C(=O)NC(CC1CCC1)C(=O)C(N)=O)C(C)(C)C)C(=O)C1CC1 (stereo partly drawn) [Entry 2]
3,30,CC(C)(C)[C@H](NC(=O)NC1(CS(=O)(=O)C(C)(C)C)CCCCC1)C(=O)N1C[C@@H]2CCC[C@@H]2[C@H]1C(=O)NC(CC1CCC1)C(=O)C(N)=O (stereo partly drawn) [Entry 3]
4,15,CN(C[C@@H](NC(=O)N[C@H](C(=O)N1C[C@@H]2CCC[C@@H]2[C@H]1C(=O)NC(CC1CCC1)C(=O)C(N)=O)C(C)(C)C)C(C)(C)C)S(C)(=O)=O (stereo partly drawn) [Entry 4]
5,19,CN(C[C@@H](NC(=O)N[C@H](C(=O)N1C[C@@H]2CCC[C@@H]2[C@H]1C(=O)NC(CC1CCC1)C(=O)C(N)=O)C(C)(C)C)C(C)(C)C)S(=O)(=O)c1cccs1 (stereo partly drawn) [Entry 5]
6,27,C#CCCC(NC(=O)[C@@H]1[C@H]2CCC[C@H]2CN1C(=O)[C@@H](NC(=O)NC1(CS(=O)(=O)C(C)(C)C)CCCCC1)C(C)(C)C)C(=O)C(=O)NCC=C (stereo partly drawn) [Entry 6]

# Same assay, conditions: HCV NS3/NS4A protease; activity class, Table 2A; read-out: Range of Ki*
row,Ki [nM],Compound
1,> 250,CC(C)(C)OC(=O)N[C@H](C(=O)N1C[C@@H]2CCC[C@@H]2[C@H]1C(=O)NC(CC1CCC1)C(=O)C(N)=O)C(C)(C)C (stereo partly drawn) [Entry 1]
2,< 75,CN(C[C@@H](NC(=O)N[C@H](C(=O)N1C[C@@H]2CCC[C@@H]2[C@H]1C(=O)NC(CC1CCC1)C(=O)C(N)=O)C(C)(C)C)C(C)(C)C)S(C)(=O)=O (stereo partly drawn) [Entry 2]
3,< 75,CC(C)[C@H](NC(=O)N[C@H](C(=O)N1C[C@@H]2CCC[C@@H]2[C@H]1C(=O)NC(CC1CCC1)C(=O)C(N)=O)C(C)(C)C)C(=O)C1CC1 (stereo partly drawn) [Entry 3]
4,< 75,CC(C)(C)[C@H](NC(=O)N[C@H](CN1C(=O)c2ccccc2C1=O)C(C)(C)C)C(=O)N1C[C@@H]2CCC[C@@H]2[C@H]1C(=O)NC(CC1CCC1)C(=O)C(N)=O (stereo partly drawn) [Entry 4]
5,< 75,CC(C)(C)[C@H](NC(=O)NC1(CS(=O)(=O)C(C)(C)C)CCCCC1)C(=O)N1C[C@@H]2CCC[C@@H]2[C@H]1C(=O)NC(CC1CCC1)C(=O)C(N)=O (stereo partly drawn) [Entry 5]
6,< 75,CN(C[C@@H](NC(=O)N[C@H](C(=O)N1C[C@@H]2CCC[C@@H]2[C@H]1C(=O)NC(CC1CCC1)C(=O)C(N)=O)C(C)(C)C)C(C)(C)C)S(=O)(=O)c1cccs1 (stereo partly drawn) [Entry 6]
7,< 75,C#CCCC(NC(=O)[C@@H]1[C@H]2CCC[C@H]2CN1C(=O)[C@@H](NC(=O)NC1(CS(=O)(=O)C(C)(C)C)CCCCC1)C(C)(C)C)C(=O)C(=O)NCC=C (stereo partly drawn) [Entry 9]
8,< 75,CCC[C@H](NC(=O)[C@@H]1[C@H]2CCC[C@H]2CN1C(=O)[C@@H](NC(=O)N[C@H](CN1C(=O)CC(C)(C)CC1=O)C(C)(C)C)C(C)(C)C)C(=O)C(=O)NC1CC1 [Entry 10]
9,< 75,C=CCNC(=O)C(=O)C(CCC)NC(=O)[C@@H]1[C@H]2CCC[C@H]2CN1C(=O)[C@@H](NC(=O)N[C@H](CN1C(=O)CC(C)(C)CC1=O)C(C)(C)C)C(C)(C)C (stereo partly drawn) [Entry 11]
10,< 75,C=CCNC(=O)C(=O)C(CCCC)NC(=O)[C@@H]1[C@H]2CCC[C@H]2CN1C(=O)[C@@H](NC(=O)N[C@H](CN1C(=O)CC(C)(C)CC1=O)C(C)(C)C)C(C)(C)C (stereo partly drawn) [Entry 12]
11,< 75,C=CCNC(=O)C(=O)C(CC1CC1)NC(=O)[C@@H]1[C@H]2CCC[C@H]2CN1C(=O)[C@@H](NC(=O)N[C@H](CN1C(=O)CC(C)(C)CC1=O)C(C)(C)C)C(C)(C)C (stereo partly drawn) [Entry 13]
